Source: PubChem BioAssay AID1240 (Sanford-Burnham Center for Chemical Genomics, 2008)
Out of some 50,000 compounds screened, about 800 (1.6%) showed an effect of 50% or more. The list shows a part of the results.

The compounds below were run against Bcl-2-like protein 10 (Homo sapiens) (UniProt Q9HD36) (assay: TR3 peptide-Bcl-B binding displacers, biochemical primary FP assay, phenotype converters (AID 1240;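 further: 0% = Bcl-B with tracer peptide and DMSO and 100% = tracer peptide lacking Bcl-B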)). Settings: GST-Bcl-B / FITC-TR3 peptide fluorescence polarization; stronger effect = higher value; compound at 3.75 mg/L.
Sequence of UniProt Q9HD36 (Q9HD36 whole entry, looked up): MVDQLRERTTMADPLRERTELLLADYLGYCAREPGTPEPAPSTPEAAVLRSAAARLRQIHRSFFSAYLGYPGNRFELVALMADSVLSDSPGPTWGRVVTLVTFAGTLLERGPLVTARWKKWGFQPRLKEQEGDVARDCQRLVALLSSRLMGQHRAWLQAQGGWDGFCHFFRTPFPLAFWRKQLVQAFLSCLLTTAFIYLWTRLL

Going from O=C(Nc1cccc(Cl)c1)c1cc([N+](=O)[O-])ccc1Cl to CCOc1ccc(NC(=O)c2cc(Cl)ccc2Cl)cc1, the displacement rises from -7.9% to 0.6%.

Going from O=C(Nc1ccc(Cl)cc1)Nc1nnc(-c2cccc(Br)c2)s1 to CC(=O)N(C)c1ccc(NC(=O)COc2ccc(Cl)cc2)cc1, the displacement falls from 20.4% to 10.2%.

Going from COc1cccc(C(=O)N2N=C(c3ccc(F)cc3)CC2(O)C(F)(F)F)c1 (centres undefined) to COc1ccc(/C(N)=N/OC(=O)c2cccc(Cl)c2)cc1, the displacement rises from -11% to -3.1%.

Going from COc1ccc(NC(=O)CN(c2cccc(C(F)(F)F)c2)S(C)(=O)=O)cc1OC to COc1ccc(N/C(=N\S(=O)(=O)c2ccc(NC(C)=O)cc2)Nc2nc(C)cc(C)n2)cc1OC, the displacement falls from 2.4% to 0.7%.

Going from COC(=O)c1ccccc1NC(=S)NC(=O)/C=C/c1ccccc1 to O=C(CCc1ccccc1)NNC(=S)Nc1ccccc1, the displacement falls from 10.2% to -24%.

Compared with O=C1C(=O)N(C(c2ccccc2)c2ccccc2)c2ccccc21, CC(c1nc2ccccc2n1C)C(O)(c1ccccc1)c1ccccc1 (centres undefined) is higher in displacement: -4% for the first, 3.1% for the second.

First: Cc1ccoc1C(=O)Nc1ccccc1C(=O)O
Second: CCOC(=O)c1ccc(NC(=O)c2ccccc2Cl)cc1
The displacement of the first is higher: 10.5% for the first, -1.6% for the second.

Going from O=C1c2cccc3cccc(c23)C(=O)N1CCN1CCN(S(=O)(=O)c2ccc(F)cc2)CC1 to O=C1c2cccc3cccc(c23)C(=O)N1/N=C/c1ccc(O)cc1, the displacement rises from -13.6% to 13.3%.

Compared with COc1ccc([N+](=O)[O-])cc1-c1ccc(/C=C2\C(=O)NC(=O)N(c3cc(C)cc(C)c3)C2=O)o1, CCOC(=O)c1ccc(N2NC(=O)/C(=C/C=C/c3cccc([N+](=O)[O-])c3)C2=O)cc1 is lower in displacement: 92.6% for the first, 10.1% for the second.

Going from Cc1ccccc1OCC(=O)Nc1c[nH]c(=O)[nH]c1=O to Cc1ccc(OCC(=O)Nc2ccc(I)cc2C)c(C)c1, the displacement rises from -31.4% to 13.1%.

Compared with Cc1ccc2[nH]c3nc(N=Nc4c(O)[nH]c5c(Br)cc(Br)cc45)nnc3c2c1, COc1ccc(C(=O)CSc2nnc(Sc3nc4ccccc4[nH]3)o2)cc1 is lower in displacement: 9.3% for the first, 8.3% for the second.

Compared with CCCCOC(=O)CCCN1C(=O)S/C(=C\c2ccccc2)C1=S, O=C(O)CCCNC(=O)COc1ccccc1 is higher in displacement: -9.5% for the first, 8.8% for the second.

First: Cc1ccc(C(C)C)c(OCCOc2cccc(/C=C3/SC(=S)N(C)C3=O)c2)c1
Second: NC1=NC(=O)/C(=C/c2cccc(OS(=O)(=O)c3ccc4ccccc4c3)c2)S1
The displacement of the first is higher: 9.8% for the first, -35.6% for the second.

Compared with CC(C)Oc1ccccc1NC(=O)CSCC(=O)Nc1ccc2ccccc2c1, CC(C)OC(=O)c1ccc(NC(=O)COc2cccc(Cl)c2)cc1 is lower in displacement: -14.6% for the first, -17% for the second.

Compared with CC(C)(Oc1ccc(CCNC(=O)c2ccc(-c3ccccc3)o2)cc1)C(=O)O, N/C(=N\OC(=O)Cc1ccc(-c2ccccc2)cc1)c1ccccc1 is lower in displacement: -1.4% for the first, -4.8% for the second.

First: CS(=O)(=O)N(CC(=O)Nc1ccc(Oc2ccccc2)cc1)c1ccc(Cl)cc1
Second: COc1ccccc1N(CC(=O)Nc1ccc(Br)cc1)S(=O)(=O)c1ccccc1
The displacement of the first is higher: 17.8% for the first, 1.7% for the second.

Compared with CCOC(=O)C1=NNC(C(=O)c2ccccc2)C1c1ccccc1 (centres undefined), CCOC(=O)CSc1nc(-c2ccccc2)cc(-c2ccccc2)n1 is lower in displacement: 26.7% for the first, -7.5% for the second.

Going from O=C(Nc1ccc(Cc2ccncc2)cc1)c1cccc(C(=O)Nc2ccc(Cc3ccncc3)cc2)c1 to Cc1cc(NC(=O)c2cc3ccccc3oc2=O)ccc1NC(=O)c1ccco1, the displacement rises from 13.5% to 14%.

Going from CC(C)c1ccc(/C=C/C(=O)Nc2ccccn2)cc1 to CCOc1ccc(N(CC(=O)NCCSc2ccccn2)S(C)(=O)=O)cc1, the displacement rises from -4.2% to 7.8%.

Compared with Cc1cccc(COc2ccc3c(oc(=O)c4ccccc43)c2C)c1, Cc1ccc(N=Cc2ccccc2OCc2ccccc2)cc1C is lower in displacement: 12.3% for the first, -7.8% for the second.

Compared with CC(=O)c1c(N2CCN(c3ccccc3)CC2)nc(=S)n(-c2ccccc2)c1C, O=C(c1cc(-c2ccccc2)nc2ccccc12)N1CCCC1 is lower in displacement: 5.3% for the first, 4.5% for the second.

Going from c1ccc2sc(SCSc3nc4ccccc4s3)nc2c1 to c1ccc(-c2cc(-c3ccccc3)[nH]n2)cc1, the displacement falls from -2.8% to -9.6%.

First: COc1ccccc1N1CCN(C(=O)COc2cccc(C)c2)CC1
Second: CC(C)Oc1cccc(C(=O)N2CCc3ccccc32)c1
The displacement of the first is lower: 2.5% for the first, 38.7% for the second.

Going from COC(=O)c1c(NC(=O)C(Cl)Cl)sc2c1CCCCCC2 to CCOC(=O)c1c(NC(=O)c2ccc(Br)o2)sc2c1CCCC2, the displacement rises from -5.3% to 7.1%.

Going from O=C(N/C(=C\c1ccc(-c2cccc([N+](=O)[O-])c2)o1)C(=O)N1CCOCC1)c1ccccc1 to O=C(N/C(=C/c1ccco1)C(=O)N1CCCCC1)c1ccc(Cl)cc1, the displacement rises from 0.4% to 22.6%.

First: COc1ccc(C(=O)Nc2nc(C)c(C)s2)cc1OC
Second: CCOC(=O)COc1ccc(C2NC(=S)NC(C)=C2C(=O)OC)cc1OC (centres undefined)
The displacement of the first is lower: -4.9% for the first, 0.8% for the second.

Compared with Cc1cccc(C(C)C)c1NC(=O)COc1ccc([N+](=O)[O-])cc1, Cc1cccc(OCC(=O)Nc2ccc(C)cc2[N+](=O)[O-])c1 is lower in displacement: -0.7% for the first, -5.8% for the second.

Compared with CC(C)(C)c1cc(-c2ccccc2)no1, CCOC(=O)c1cc2nc(-c3ccccc3)cc(C)n2n1 is lower in displacement: 9.4% for the first, 0.7% for the second.

Going from CCc1ccc2c(c1)C(c1ccccc1)C(=O)O2 (centres undefined) to c1ccc(-n2ncnc2-c2ccc3c(c2)OCO3)cc1, the displacement rises from -13% to 4.4%.

First: O=C(COc1ccc(Cl)cc1Cl)NNC(=O)CN1C(=O)/C(=C/c2ccc(Cl)cc2Cl)SC1=S
Second: CCN(CC)c1ccc(NC(=O)COc2ccc(Cl)cc2C)cc1
The displacement of the first is higher: 48.6% for the first, 5.6% for the second.

First: COc1ccc(CCN2C(=O)CSC2c2ccc(Cl)c(Cl)c2)cc1OC (centres undefined)
Second: COc1cc(/C=C2\SC(=Nc3ccc(C)c(Cl)c3)NC2=O)ccc1C
The displacement of the first is higher: 30.1% for the first, 12.6% for the second.

Going from O=C(/C=C1/NC(=S)N(c2ccccc2)C1=O)c1ccc(Cl)cc1 to O=C1SC(Nc2ccc(I)cc2)C(=O)N1c1ccccc1 (centres undefined), the displacement rises from -10.8% to 3.3%.

Compared with O=C(Nc1ccc(S(=O)(=O)N2CCCCC2)cc1)c1ccc(Cl)cc1, O=C(Nc1cccc2ccccc12)c1ccc(S(=O)(=O)N2CCCCC2)cc1 is lower in displacement: -2.1% for the first, -8.9% for the second.

First: O=C(O)C1C2C=CC(O2)C1C(=O)NCCc1ccccc1 (centres undefined)
Second: O=C(COc1ccc2c3c(c(=O)oc2c1)CCCC3)OCc1ccccc1
The displacement of the first is higher: 31% for the first, -4.5% for the second.

Going from CCOC(=O)CNS(=O)(=O)c1ccc(F)cc1 to CCOc1ccccc1N(CC(=O)NC1CCCC1)S(=O)(=O)c1ccccc1, the displacement rises from -8.7% to 3.5%.

Compared with O=S(=O)(c1ccc(Cl)cc1)N1CCN(C2CCC(c3ccccc3)CC2)CC1 (centres undefined), C/C(=N\N1CCN(Cc2ccc(Cl)cc2)CC1)c1ccccc1O is lower in displacement: -4.6% for the first, -6.7% for the second.

Going from Brc1ccc(CSc2nnnn2-c2ccccc2)cc1 to O=[N+]([O-])c1ccc(-n2ncnc2-c2ccc(F)cc2)cc1, the displacement rises from -2.9% to 10.5%.

Compared with O=C(Nc1ccccc1C(F)(F)F)C1CCCC1, CCOc1ccccc1NC(=O)CC1Sc2ccc(C(F)(F)F)cc2NC1=O (centres undefined) is higher in displacement: -0.8% for the first, 0.8% for the second.

First: COc1ccc(C2=C/C(=C\c3cc([N+](=O)[O-])ccc3Cl)C(=O)O2)cc1
Second: CCOC(=O)C1=C(C)N=c2s/c(=C\c3cc(OC)ccc3OC)c(=O)n2C1c1ccccc1Cl (centres undefined)
The displacement of the first is lower: -11.4% for the first, 18.2% for the second.

First: Cc1ccc(C(=O)NCCCNc2ccc(Cl)cc2[N+](=O)[O-])cc1
Second: COCCCNC(=O)C(=O)Nc1cc(C)ccc1OC
The displacement of the first is higher: 0.6% for the first, -4.5% for the second.

Going from COC(=O)C1=C(C)N(C)C(C)=C(C(=O)OC)C1c1ccc(C(F)(F)F)cc1 to COC(=O)C1=C(C)N(C)C(=O)NC1c1cc(Br)c(O)c(OC)c1 (centres undefined), the displacement rises from -10.4% to -1.5%.

First: CCCOc1ccc(C(CC(=O)c2ccc(Cl)cc2)S(=O)(=O)c2ccccc2)cc1 (centres undefined)
Second: CC1=C(C(=O)OCCOc2ccccc2)Sc2ccccc2N1
The displacement of the first is lower: -3.2% for the first, -2% for the second.

Going from CCC/C(O)=C1\C(=O)CC(C)(C)CC1=Nc1ccc(OC)cc1 to COc1ccc(S(=O)(=O)N/N=C/c2ccc(OCCN3CCOCC3)c(OC)c2)cc1, the displacement falls from 6.6% to 4.4%.

Compared with CCOC(=O)N1CCN(C(=S)Nc2ccc3nccnc3c2)CC1, Cc1ccc(/C=N/Nc2nc(N3CCOCC3)nc(N3CCOCC3)n2)c(C)c1 is higher in displacement: -8% for the first, -0.8% for the second.

Going from COc1ccc(/C=N/n2c(C)nnc2C)cc1Br to COc1ccc(OC)c(NC(=O)C(=O)N/N=C/c2ccc(C(=O)O)cc2)c1, the displacement rises from 9.8% to 12.3%.

Compared with Cc1ccc(Br)cc1S(=O)(=O)N1CCOCC1, CC(Oc1ccc2c3c(c(=O)oc2c1)CCCC3)C(=O)c1ccccc1 (centres undefined) is lower in displacement: 3.2% for the first, -9.6% for the second.

Compared with CCCOc1ccccc1/C=N/Nc1nncn1N, CCC(C)c1ccc(OCCOc2ccc(Br)cc2/C=N/n2cnnc2)cc1 (centres undefined) is lower in displacement: -11.6% for the first, -13% for the second.

Going from CC(=O)Nc1c(C)c(Br)cc(C(=O)O)c1[N+](=O)[O-] to Cc1cc(C(=O)Nc2sc(C(=O)OC(C)C)c(C)c2C(N)=O)ccc1[N+](=O)[O-], the displacement rises from 8.9% to 31.5%.

Compared with COc1cc(/C=N/NC(=O)CC(=O)NC(C)C)cc(OC)c1OC, COc1cc(OC)c(OC)cc1/C=N/NC(=O)c1cc(-c2ccc(Cl)cc2)n[nH]1 is lower in displacement: 5.9% for the first, -2.6% for the second.

First: O=C1S/C(=C\c2cc3c(cc2Br)OCO3)C(=O)N1c1ccccc1
Second: O=C1/C(=C/c2cn(-c3ccccc3)nc2-c2ccco2)SC(=S)N1C1CCS(=O)(=O)C1 (centres undefined)
The displacement of the first is lower: -5.1% for the first, 11.2% for the second.

First: CC(=O)c1ccc(NC(=S)NC(NC(=O)c2cccc(C)c2)C(Cl)(Cl)Cl)cc1 (centres undefined)
Second: O=C(Nc1ccc2oc(-c3cccnc3)nc2c1)c1ccc(Br)o1
The displacement of the first is lower: 7.3% for the first, 15.6% for the second.

First: O=[N+]([O-])c1ccc(S(=O)(=O)Nc2cc(Cl)cc(Cl)c2)cc1
Second: CCN=C(NCC)SC1CC(=O)N(c2ccc(Cl)c(Cl)c2)C1=O (centres undefined)
The displacement of the first is higher: 18.6% for the first, -5% for the second.

First: Br/C(=C\c1ccccc1)C1Nc2cccc3cccc(c23)N1
Second: Cc1cccnc1N1C(=O)C2C3c4ccccc4C(C)(c4ccccc43)C2C1=O (centres undefined)
The displacement of the first is higher: 15.4% for the first, -3% for the second.

First: CCOc1ccc(/C=C2/SC(=S)NC2=O)cc1Cl
Second: CC(C)Oc1ccc(C2CC(=O)N(C)C2=O)cc1 (centres undefined)
The displacement of the first is higher: 11.7% for the first, 1.8% for the second.

Compound O=C(NCc1ccncc1)c1cccs1 has a displacement of -4.7%.
